From ChEMBL document CHEMBL5634115, “Exploring novel anticancer pyrazole benzenesulfonamides featuring tail approach strategy as carbonic anhydrase inhibitors” (Eur J Med Chem, 2023)

Legend:
Assay in all cases: cells
HOP-92 [1] = assay type: functional; conditions: Homo sapiens, time 48 hrs
M14 = conditions: Homo sapiens, M14, 48 h, read-out: LC50
SK-MEL-5 = assay type: functional; conditions: Homo sapiens, time 48 hrs
CAKI-1 = assay type: functional; conditions: Homo sapiens, time 48 hrs
KM12 [2] = assay type: functional; conditions: Homo sapiens, time 48 hrs
NCI-H322M [3] = assay type: functional; conditions: Homo sapiens, time 48 hrs
SF-268 = assay type: functional; conditions: Homo sapiens, time 48 hrs
RPMI-8226 [4] = conditions: Homo sapiens, RPMI-8226, 48 h, read-out: LC50
Malme-3M = assay type: functional; conditions: Homo sapiens, time 48 hrs
UO-31 = assay type: functional; conditions: Homo sapiens, time 48 hrs
NCI/ADR-RES = assay type: functional; conditions: Homo sapiens, time 48 hrs
A498 = assay type: functional; conditions: Homo sapiens, time 48 hrs
786-0 = assay type: functional; conditions: Homo sapiens, time 48 hrs
SF-539 [5] = assay type: functional; conditions: Homo sapiens, time 48 hrs
SR [6] = assay type: functional; conditions: Homo sapiens, time 48 hrs
A549 = conditions: Homo sapiens, A549, 48 h, read-out: LC50
SN12C = assay type: functional; conditions: Homo sapiens, time 48 hrs
MDA-MB-231 [7] = conditions: Homo sapiens, MDA-MB-231, 48 h, read-out: LC50
UACC-62 [8] = conditions: Homo sapiens, UACC-62, 48 h, read-out: LC50
OVCAR-4 [9] = conditions: Homo sapiens, OVCAR-4, 48 h, read-out: LC50
EKVX = assay type: functional; conditions: Homo sapiens, time 48 hrs
RXF 393 [10] = assay type: functional; conditions: Homo sapiens, time 48 hrs
SNB-75 = conditions: Homo sapiens, SNB-75, 48 h, read-out: LC50
HT-29 = conditions: Homo sapiens, HT-29, 48 h, read-out: LC50
HCT-116 = assay type: functional; conditions: Homo sapiens, time 48 hrs
NCI-H460 = assay type: functional; conditions: Homo sapiens, time 48 hrs
SNB-19 = conditions: Homo sapiens, SNB-19, 48 h, read-out: LC50
KM12 [11] = assay type: functional; conditions: Homo sapiens, time 48 hrs; remark: listed apart in the source
TK-10 = assay type: functional; conditions: Homo sapiens, time 48 hrs
HOP-62 [12] = assay type: functional; conditions: Homo sapiens, time 48 hrs
SR [13] = assay type: functional; conditions: Homo sapiens, time 48 hrs; remark: listed apart in the source
OVCAR-5 = conditions: Homo sapiens, OVCAR-5, 48 h, read-out: LC50
T47D = conditions: Homo sapiens, 48 h, read-out: LC50
OVCAR-4 [14] = assay type: functional; conditions: Homo sapiens, time 48 hrs
RXF 393 [15] = conditions: Homo sapiens, RXF 393, 48 h, read-out: LC50
LOX IMVI = assay type: functional; conditions: Homo sapiens, time 48 hrs
MDA-MB-231 [16] = assay type: functional; conditions: Homo sapiens, time 48 hrs
UACC-62 [17] = assay type: functional; conditions: Homo sapiens, time 48 hrs
NCI-H23 [18] = assay type: functional; conditions: Homo sapiens, time 48 hrs
NCI-H322M [19] = assay type: functional; conditions: Homo sapiens, time 48 hrs; remark: listed apart in the source
COLO 205 [20] = assay type: functional; conditions: Homo sapiens, time 48 hrs
HL-60(TB) = assay type: functional; conditions: Homo sapiens, time 48 hrs
MDA-MB-468 = conditions: Homo sapiens, MDA-MB-468, 48 h, read-out: LC50
UACC-257 = conditions: Homo sapiens, UACC-257, 48 h, read-out: LC50
HOP-92 [21] = conditions: Homo sapiens, HOP-92, 48 h, read-out: LC50
OVCAR-3 = conditions: Homo sapiens, OVCAR-3, 48 h, read-out: LC50
SF-539 [22] = assay type: functional; conditions: Homo sapiens, time 48 hrs; remark: listed apart in the source
NCI-H522 = assay type: functional; conditions: Homo sapiens, time 48 hrs
MCF7 = assay type: functional; conditions: Homo sapiens, time 48 hrs
Hs-578T = assay type: functional; conditions: Homo sapiens, time 48 hrs
PC-3 = conditions: Homo sapiens, PC-3, 48 h, read-out: LC50
ACHN = assay type: functional; conditions: Homo sapiens, time 48 hrs
SF-295 = assay type: functional; conditions: Homo sapiens, time 48 hrs
RPMI-8226 [23] = assay type: functional; conditions: Homo sapiens, time 48 hrs
K562 = assay type: functional; conditions: Homo sapiens, time 48 hrs
UACC-62 [24] = assay type: functional; conditions: Homo sapiens, time 48 hrs; remark: listed apart in the source
DU-145 [25] = conditions: Homo sapiens, DU-145, 48 h, read-out: LC50
DU-145 [26] = assay type: functional; conditions: Homo sapiens, time 48 hrs
HOP-62 [27] = assay type: functional; conditions: Homo sapiens, time 48 hrs; remark: listed apart in the source
NCI-H23 [28] = assay type: functional; conditions: Homo sapiens, time 48 hrs; remark: listed apart in the source
COLO 205 [29] = conditions: Homo sapiens, COLO 205, 48 h, read-out: LC50

**Q.** With `CCOC(=O)c1ccc(N/N=C/c2cn(-c3ccc(S(N)(=O)=O)cc3)nc2-c2ccc(OC)cc2)cc1` as the molecule, how does the GI50 (HOP-92 [1]) read?
**A.** 2.65 µM

**Q.** What about the CC50 (M14) of the same molecule?
**A.** > 100 µM

**Q.** And the TGI (SK-MEL-5)?
**A.** 3.49 µM

**Q.** What about the GI50 (CAKI-1) of the same molecule?
**A.** 2.8 µM

**Q.** And the GI50 (KM12 [2])?
**A.** 2.05 µM

**Q.** What about the TGI (NCI-H322M [3]) of the same molecule?
**A.** > 100 µM

**Q.** What about the TGI (SF-268) of the same molecule?
**A.** 36.3 µM

**Q.** What about the CC50 (RPMI-8226 [4]) of the same molecule?
**A.** > 100 µM

**Q.** And the GI50 (Malme-3M)?
**A.** 3.68 µM

**Q.** What about the TGI (UO-31) of the same molecule?
**A.** 13 µM

**Q.** And the GI50 (NCI/ADR-RES)?
**A.** 2.61 µM

**Q.** And the TGI (A498)?
**A.** 96.9 µM

**Q.** What about the GI50 (786-0) of the same molecule?
**A.** 2.23 µM

**Q.** And the TGI (SF-539 [5])?
**A.** 3.81 µM

**Q.** And the GI50 (SR [6])?
**A.** 2.5 µM

**Q.** What about the CC50 (A549) of the same molecule?
**A.** > 100 µM

**Q.** What about the TGI (SN12C) of the same molecule?
**A.** > 100 µM

**Q.** What about the CC50 (MDA-MB-231 [7]) of the same molecule?
**A.** > 100 µM

**Q.** And the CC50 (UACC-62 [8])?
**A.** > 100 µM

**Q.** And the CC50 (OVCAR-4 [9])?
**A.** > 100 µM

**Q.** What about the TGI (EKVX) of the same molecule?
**A.** > 100 µM

**Q.** What about the GI50 (RXF 393 [10]) of the same molecule?
**A.** 1.96 µM

**Q.** What about the CC50 (SNB-75) of the same molecule?
**A.** > 100 µM

**Q.** What about the CC50 (HT-29) of the same molecule?
**A.** > 100 µM

**Q.** What about the GI50 (HCT-116) of the same molecule?
**A.** 3.17 µM

**Q.** What about the GI50 (NCI-H460) of the same molecule?
**A.** 2.71 µM

**Q.** What about the CC50 (SNB-19) of the same molecule?
**A.** > 100 µM

**Q.** And the TGI (KM12 [11])?
**A.** 4.48 µM

**Q.** And the TGI (TK-10)?
**A.** > 100 µM

**Q.** And the GI50 (HOP-62 [12])?
**A.** 3.97 µM

**Q.** What about the TGI (SR [13]) of the same molecule?
**A.** 6.63 µM

**Q.** And the CC50 (OVCAR-5)?
**A.** 90.1 µM

**Q.** What about the CC50 (T47D) of the same molecule?
**A.** > 100 µM

**Q.** And the TGI (OVCAR-4 [14])?
**A.** > 100 µM

**Q.** What about the CC50 (RXF 393 [15]) of the same molecule?
**A.** 7.27 µM

**Q.** And the GI50 (LOX IMVI)?
**A.** 1.74 µM

**Q.** And the TGI (MDA-MB-231 [16])?
**A.** 9.2 µM

**Q.** What about the TGI (UACC-62 [17]) of the same molecule?
**A.** 23.3 µM

**Q.** And the GI50 (NCI-H23 [18])?
**A.** 3.41 µM

**Q.** What about the GI50 (NCI-H322M [19]) of the same molecule?
**A.** 3.35 µM

**Q.** And the GI50 (COLO 205 [20])?
**A.** 13.4 µM

**Q.** And the GI50 (HL-60(TB))?
**A.** 2.52 µM

**Q.** And the CC50 (MDA-MB-468)?
**A.** > 100 µM

**Q.** And the CC50 (UACC-257)?
**A.** > 100 µM

**Q.** And the CC50 (HOP-92 [21])?
**A.** > 100 µM

**Q.** What about the CC50 (OVCAR-3) of the same molecule?
**A.** 92 µM

**Q.** What about the GI50 (SF-539 [22]) of the same molecule?
**A.** 1.84 µM

**Q.** What about the TGI (NCI-H522) of the same molecule?
**A.** 5.44 µM

**Q.** And the TGI (MCF7)?
**A.** 5.72 µM

**Q.** And the TGI (Hs-578T)?
**A.** 8.08 µM

**Q.** And the CC50 (PC-3)?
**A.** > 100 µM

**Q.** What about the TGI (ACHN) of the same molecule?
**A.** > 100 µM

**Q.** And the TGI (SF-295)?
**A.** 18.7 µM

**Q.** And the TGI (RPMI-8226 [23])?
**A.** > 100 µM

**Q.** What about the GI50 (K562) of the same molecule?
**A.** 2.86 µM

**Q.** And the GI50 (UACC-62 [24])?
**A.** 4 µM

**Q.** What about the CC50 (DU-145 [25]) of the same molecule?
**A.** > 100 µM

**Q.** What about the TGI (DU-145 [26]) of the same molecule?
**A.** 9.82 µM

**Q.** And the TGI (HOP-62 [27])?
**A.** > 100 µM

**Q.** What about the TGI (NCI-H23 [28]) of the same molecule?
**A.** 22.5 µM

**Q.** What about the CC50 (COLO 205 [29]) of the same molecule?
**A.** > 100 µM
